The subject of the assay is NCI-H1876 complex spheroid growth, % test/control. The experiment in a line: Anticancer human tumor NCI-H1876 cell line growth inhibition [Asc].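 Note: compound exposure lasted 7 days starting three days after seeding; 100% = DMSO vehicle control wells.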 The note with it: stronger effect = lower value. As for the experimental part:
Multicellular complex tumor spheroid response to apoptosis pathway targeting inhibitors Alrizomadlin, Pelcitoclax, and Dasminapant in combination with a variety of drugs and investigational agents in selected tumor cell lines
The MDM2 inhibitor alrizomadlin, the Bcl-2/Bcl-xL inhibitor pelcitoclax, and the IAPs inhibitor dasminapant were evaluated both individually and in combination with standard of care and investigational anticancer small molecules within a complex spheroid model of solid tumors. . Complex spheroids include a stromal component modeled by human endothelial cells (HUVEC) and fibroblasts modeled by human mesenchymal stem cells (MSCs). The concentration ranges selected for each drug and investigational agent were based upon clinically achievable concentrations if the clinical Cmax of the agent was known.
Compounds. The drugs and investigational agents: alrizomadlin (APG-115; NSC831270), pelcitoclax (APG-1252; NSC835773), dasminapant (APG-1387;NSC834197), TAK-243 (NSC785004), copanlisib (NSC809693), olaparib (NSC753686), talazoparib (NSC767125), cobimetinib (NSC 768068), eltanexor (KPT-8602, NSC 794443), abemaciclib (NSC 768073), sotorasib (NSC818433), adagrasib (NSC 831453), MRTX-1133 (NSC 836407), Iadademestat (ORY1001, NSC 806812), and RMC-4630 (NSC839698), were obtained from the NCI Developmental Therapeutics Program Chemical Repository. The FDA-approved anticancer drug set is available from the Developmental Therapeutics Program at https://dtp.cancer.gov/organization/dscb/obtaining/available plates.htm. […] The stock solutions were prepared in dimethyl sulfoxide (DMSO, Sigma-Aldrich, St. Louis, MO, cat. D2650) at 800-fold the tested concentration and stored at -70 degrees C prior to their use. All drugs and investigational agents were tested over a range starting from a high concentration at or near the clinical Cmax and decreasing in half-log increments. If the clinical Cmax for an agent had not been determined, the highest concentration tested was 10 microM.
The patient-derived cancer (PDC) cell lines include five colon adenocarcinomas: 186277-243-T-J2-PDC, 616215-338-R-J1-PDC, 439559-082-T-J2-PDC, 463943-066-T-J2-PDC, and 519858-162-T-J1-PDC; three pancreatic carcinomas: 323965-272-R-J2-PDC, 521955-158-R6-J3-PDC, and 521955-158-R2-J5-PDC; two uterine sarcomas: 327498-152-R-J2-PDC and 993429-296-R-J1-PDC; two rhabdomyosarcomas: 755483-174-R-J1-PDC and 772245-204-R-J1-PDC; two soft tissue sarcomas: 126254-015-R-J1-PDC and 494315-158-R-J1-PDC; two malignant fibrous histiocytomas: 317291-083-R-J1-PDC and 596521-263-R-J1-PDC; two breast carcinomas: 171881-019-R-J1-PDC and 885512-296-R-J2-PDC; and one ovarian carcinoma: 6556581-035-R-J-PDC were obtained from the NCI PDMR, (https://pdmr.cancer.gov). The established cell lines HSSY-2 synovial sarcoma (RRID:CVCL 8719), SYO-1 synovial sarcoma (RRID:CVCL_7146), MPNST malignant peripheral neural sheath tumor were obtained from the Sloan Kettering Institute. […]

For part of its entries the source gives two or more results. This list holds those alone. The source may hold further records. The records of an entry are repeats (runs, samples, wells, individuals or studies). Counts like (3×) give the number of equal values in this list.

With `CNC(C)C(=O)NC1CN(S(=O)(=O)c2cccc(S(=O)(=O)N3CCC4CCC(C(=O)NC(c5ccccc5)c5ccccc5)N4C(=O)C(NC(=O)C(C)NC)C3)c2)CCC2CCC(C(=O)NC(c3ccccc3)c3ccccc3)N2C1=O` (stereo not given), the viability, T/C (compound alone 0.00316 µM) was 96.7, 102, 77.7, 112, 105, 117, 109, 103% (2×).

Turning to `CCN1C(C(=O)NC23CCC(C(=O)O)(CC2)CC3)C(c2cccc(Cl)c2F)C2(C(=O)Nc3cc(Cl)ccc32)C12CCCCC2` (stereo not given), the viability, T/C reads like this: (compound alone 0.03 µM) 119, 108, 103, 112, 114, 99.4, 107, 87.4, 98.9%; (compound alone 0.3 µM) 98, 106, 96.6, 107, 99, 128, 95.5, 97.2, 103%; (compound alone 0.949 µM) 128, 111 (2×), 105, 99.6, 101, 126, 113, 115%.

In the case of `C=C(F)C(=O)N1CCN(c2nc(OCC3CCCN3C)nc3c2CCN(c2cccc4cccc(Cl)c24)C3)CC1CC#N` (stereo not given), where the note is “compound alone 10 µM”, the viability, T/C is 26.9%, 17.3%, 0.97%.

The values are drawn from PubChem BioAssay AID1963441 (Molecular Pharmacology Branch, DTP, NCI, 2024).
